Source: the supplement of paper PMC4166925
± gives the standard deviation of the averaged measurements. Whole data set: some 33,000 sequences, median “E-score (dimensionless, -0.5 to 0.5)” near -0.049, cut for the highest 2% near 0.37. The list shows a part of the results.

Each sequence was assayed on T1, PmTbr T-box DNA-binding domain (GST fusion) (assay: PBM E-score of 8-mer (E-score (dimensionless, -0.5 to 0.5)); Tbr is Tbrain of the sea star Patiria miniata (Pm) or the sea urchin Strongylocentrotus purpuratus (Sp); higher = stronger binding preference; most listed sequences are background and not binding sites). Conditions: the construct has about 5 more residues each side.
T1 sequence: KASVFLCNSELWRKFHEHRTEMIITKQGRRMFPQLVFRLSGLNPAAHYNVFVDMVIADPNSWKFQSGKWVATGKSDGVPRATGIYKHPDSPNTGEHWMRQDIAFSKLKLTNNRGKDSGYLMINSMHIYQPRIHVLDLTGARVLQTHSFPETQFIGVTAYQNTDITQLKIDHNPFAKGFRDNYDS
Procedure: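 Universal protein-binding microarray (Agilent AMADID 016060, 60-bp probes with a 35-bp variable region) incubated with 200 nM GST-fused Patiria miniata Tbr T-box DNA-binding domain (residues 272-466) in PBS pH 7.5. Scored for every ungapped 8-mer (given with its reverse complement) by the Universal PBM Analysis Suite as E-score (modified Wilcoxon-Mann-Whitney enrichment, range -0.5 to 0.5; >0.45 counts as bound) and Z-score of median probe intensity. Two replicate arrays (datasets 1 and 2).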
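Further: 200 nM protein in PBS on universal arrays averaged over duplicate arrays.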

Row | Sequence | PBM E-score of 8-mer
1 | ACGCCATC | 0.143 ± 0.031
2 | ATCAAAGG | -0.137 ± 0.0037
3 | CCACCGAA | -0.0817 ± 0.054
4 | ATTCATGA | -0.288 ± 0.025
5 | GTGTAATA | 0.229 ± 0.089
6 | ATGGCCAA | -0.191 ± 0.003
7 | GCGGGCCA | 0.0195 ± 0.055
8 | CTCTTGTC | -0.0139 ± 0.029
9 | TACATTAA | -0.219 ± 0.025
10 | AGATTTAG | 0.00196 ± 0.0076
11 | TACTGGGA | -0.131 ± 0.035
12 | AGCGAGGG | 0.1683 ± 0.0013
13 | AGTGCGAC | 0.37 ± 0.012
14 | CGAAAGAA | 0.0356 ± 0.063
15 | ACCCGAGG | -0.102 ± 0.066
16 | TGTGTTAA | 0.365 ± 0.029
17 | ATGGTTTA | -0.159 ± 0.062
18 | CCATTATA | -0.0169 ± 0.016
19 | CTCGTTGC | -0.0582 ± 0.016
20 | GTACACAA | 0.0651 ± 0.0098
21 | GTACAACA | 0.0279 ± 0.061
22 | ATACATGC | -0.171 ± 0.024
23 | CGCGTTCA | 0.108 ± 0.0048
24 | CATGCCGG | 0.0193 ± 0.046
25 | CTATGACA | 0.0502 ± 0.04

Row | Sequence | PBM E-score of 8-mer
26 | GCAGGAAC | -0.0921 ± 0.0075
27 | CGTCTTGA | 0.0501 ± 0.12
28 | ACGATGGC | 0.138 ± 0.045
29 | AACAGAAA | 0.0391 ± 0.03
30 | AGCATTAG | -0.185 ± 0.058
31 | ATCGTTGA | -0.173 ± 0.031
32 | ATCGTCAA | 0.0469 ± 0.0067
33 | CACCTTAG | 0.4473 ± 0.0023
34 | ACCCACGT | 0.206 ± 0.017
35 | CTCTCTGC | -0.164 ± 0.018
36 | AAACGGTA | -0.0794 ± 0.096
37 | ACATTTAT | -0.0187 ± 0.078
38 | GCTCTTTA | -0.393 ± 0.017
39 | GCAACCCC | 0.0223 ± 0.014
40 | ACTGAGAA | -0.00583 ± 0.037
41 | ACGGACTC | -0.221 ± 0.041
42 | ATAAATGG | -0.252 ± 0.0056
43 | CGGGATTA | -0.304 ± 0.042
44 | ATGACGAG | -0.125 ± 0.076
45 | CGTATCCA | -0.309 ± 0.11
46 | GAATAGTA | -0.0941 ± 0.0043
47 | GGATAAGA | -0.0567 ± 0.028
48 | AACACGCC | 0.281 ± 0.0074
49 | AGTAAATC | -0.0816 ± 0.092
50 | GAAATGTC | 0.0434 ± 0.029

Row | Sequence | PBM E-score of 8-mer
51 | AAGATTGA | 0.0116 ± 0.077
52 | CGGACAAG | -0.0464 ± 0.025
53 | CACTCCCG | 0.209 ± 0.0078
54 | CTAAGAAG | 0.13 ± 0.039
55 | GAGCGACC | -0.0895 ± 0.13
56 | CAAACCCA | -0.0176 ± 0.0012
57 | ACCAATAG | -0.1482 ± 0.00068
58 | CCTCTGCC | 0.0232 ± 0.017
59 | AATGCCCG | 0.0543 ± 0.049
60 | AAGCACCA | -0.0877 ± 0.011
61 | AGTGCTTG | -0.164 ± 0.036
62 | CGAATGTC | -0.0275 ± 0.0064
63 | ATTTGCCG | 0.102 ± 0.041
64 | CTCTCCTA | -0.118 ± 0.0063
65 | AACATACG | -0.03 ± 0.023
66 | GAAGGACC | -0.241 ± 0.026
67 | GAATAGCC | -0.144 ± 0.053
68 | CGAGTTTC | 0.0431 ± 0.014
69 | ACGGCGTG | 0.2621 ± 0.0012
70 | AGTGGTTG | -0.0432 ± 0.029
71 | AATAGGCA | -0.119 ± 0.009
72 | GAGGCTAC | -0.192 ± 0.034
73 | AACAGCGA | 0.0744 ± 0.026
74 | ATGAACAA | -0.144 ± 0.024
75 | AGCTGTAT | -0.22 ± 0.046

Row | Sequence | PBM E-score of 8-mer
76 | GGACGCGA | -0.0355 ± 0.028
77 | TAGCAACA | 0.288 ± 0.0082
78 | CCGCTAGC | 0.0751 ± 0.017
79 | ACCTTACC | 0.0523 ± 0.018
80 | ACGAAGGA | -0.134 ± 0.042
81 | ACTGTAGG | -0.0391 ± 0.04
82 | CTTACGTC | -0.119 ± 0.055
83 | TCATTAAA | -0.113 ± 0.031
84 | AAAGGTCG | -0.0893 ± 0.048
85 | TCTTAAAA | 0.00331 ± 0.079
86 | CTTAGTAA | -0.0877 ± 0.026
87 | GTTATGGA | -0.104 ± 0.0036
88 | TCCATGCA | -0.238 ± 0.015
89 | AGCACGCT | -0.0568 ± 0.002
90 | ACTCTACA | -0.0227 ± 0.028
91 | CACTCCGA | 0.133 ± 0.023
92 | CGAGCCTC | -0.21 ± 0.023
93 | CCGCAGGA | -0.279 ± 0.045
94 | CGCCGATA | -0.0288 ± 0.06
95 | ACGCCTCT | 0.2542 ± 0.0022
96 | ACGAAGGC | 0.1204 ± 0.00038
97 | ACCGAAGC | -0.106 ± 0.0019
98 | ATCGCGCG | 0.314 ± 0.015
99 | AGGCGACC | -0.13 ± 0.17
100 | GATCATCA | 0.0152 ± 0.026

Row | Sequence | PBM E-score of 8-mer
101 | ATCGATCA | -0.0185 ± 0.041
102 | TCACCTGA | 0.353 ± 0.019
103 | ACAGAAGT | 0.0721 ± 0.022
104 | GCCAGCCC | -0.173 ± 0.021
105 | CCATGGAC | 0.0124 ± 0.025
106 | CCGTAAAC | -0.126 ± 0.021
107 | ATGTGGGA | 0.175 ± 0.04
108 | GAACATTC | -0.3 ± 0.045
109 | AATTTGCG | 0.18 ± 0.033
110 | GCTGTACA | -0.0215 ± 0.03
111 | CGAGGGTC | -0.133 ± 0.039
112 | CTTGACAA | 0.328 ± 0.0034
113 | GAGGCGAA | -0.0798 ± 0.005
114 | GGCCTGAC | -0.103 ± 0.02
115 | ACATTAGG | 0.0856 ± 0.037
116 | GACAAGCA | -0.0524 ± 0.085
117 | ATTCTTTC | -0.16 ± 0.093
118 | GAGCGAGA | 0.0973 ± 0.013
119 | AAGCTCGT | -0.194 ± 0.088
120 | CACTGGAA | -0.0945 ± 0.0084
121 | ACTGGAAA | -0.2104 ± 0.0017
122 | GACGCAAA | 0.0266 ± 0.044
123 | GCTGACTA | -0.0402 ± 0.059
124 | ACTATGCA | 0.0478 ± 0.048
125 | TAGCTTAA | -0.163 ± 0.029

Row | Sequence | PBM E-score of 8-mer
126 | TAATATAA | -0.201 ± 0.047
127 | GAAGCGCC | 0.0934 ± 0.033
128 | ATGCGGTC | -0.168 ± 0.11
129 | AATGAGTG | -0.0213 ± 0.075
130 | CTGATCGC | 0.0865 ± 0.06
131 | CCATGCGA | 0.178 ± 0.025
132 | ATCACTAA | 0.0668 ± 0.0062
133 | CCCGCCCC | 0.0457 ± 0.015
134 | AAGAATCC | -0.0447 ± 0.052
135 | CCTGCTAG | 0.0821 ± 0.036
136 | AAGGATGC | -0.0358 ± 0.031
137 | ACATCTCG | 0.00518 ± 0.044
138 | AGGCATTC | -0.101 ± 0.038
139 | GAGTACCA | -0.0466 ± 0.035
140 | AAACACCT | 0.4565 ± 0.0016
141 | TATCGTGA | 0.0852 ± 0.01
142 | AGGTGTAC | 0.218 ± 0.043
143 | AGTTCCAT | -0.00621 ± 0.036
144 | AAGATGTG | 0.224 ± 0.026
145 | GGACTACC | -0.3 ± 0.087
146 | ACGCCCAC | 0.0928 ± 0.075
147 | TTAGACAA | -0.144 ± 0.0043
148 | GGCGTCTA | 0.0319 ± 0.033
149 | GGTTGTGA | 0.244 ± 0.0053
150 | GCGCTGAA | 0.064 ± 0.049

Row | Sequence | PBM E-score of 8-mer
151 | AAGAAAAA | -0.0882 ± 0.11
152 | ATGACCTG | 0.0827 ± 0.042
153 | CTACTGAG | -0.0598 ± 0.034
154 | TCCAAAGA | -0.137 ± 0.036
155 | CCTCAATA | -0.176 ± 0.051
156 | ATTACTGA | -0.0734 ± 0.066
157 | ACGCACCG | -0.0297 ± 0.17
158 | CGTTGCGA | 0.28 ± 0.02
159 | GATGGATA | -0.142 ± 0.054
160 | ACCTTACT | 0.0445 ± 0.0097
161 | TAAGGCGA | 0.132 ± 0.064
162 | GTACGTAA | -0.141 ± 0.023
163 | AACAGAGT | -0.0158 ± 0.027
164 | AATGCGAA | 0.011 ± 0.054
165 | CCCAAGAA | -0.0513 ± 0.002
166 | ATAACTCG | -0.163 ± 0.1
167 | GTTATAAC | 0.0936 ± 0.081
168 | AATCCAAT | -0.0242 ± 0.039
169 | GCCATAAA | -0.0292 ± 0.012
170 | GGTAAACC | 0.131 ± 0.039
171 | GTCACGCA | 0.257 ± 0.019
172 | ACCACCGG | -0.05 ± 0.12
